Our source for the growth values is the supplement of paper PMC10986608.

This is one part of the list. Many values rest on one well or one pass, so single values are uncertain.

This test concerns Candida albicans DPL-15. The test is described as follows: growth (OD600) after compound treatment (apparently relative to screen median) (relative growth (fraction; screen median 1.02)); DPL-15 is a caspofungin-resistant clinical isolate; higher = more fungal growth (less antifungal activity). Particulars: 25 µM; RPMI 1640; 48 h; 30 °C.
Turning to `COc1ccc(N2C(=O)C(Nc3ccc4c(c3)OCO4)=CC2c2ccc3c(c2)OCO3)cc1` (stereo unspecified), the growth was 0.942.
As for `COC(=O)[C@@H](Cc1ccccc1)N1C[C@@]2(O)CC[C@@H](O)[C@@H](OC)[C@@H]2[C@@](C)(O)[C@@H]1CC=C(C)C`, the figure is 1.05.
As for `COC(=O)[C@]1([C@H]2CCC(=O)O2)CC(=O)c2c(O)c(Cl)cc(Cl)c2O1`, the growth worked out at 1.06.
The value for `Cc1ccc(CCC(=O)/C=C(\O)CCc2ccc(C)cc2)cc1` was 0.987; that for `Cc1cc2c(c(=O)o1)[C@@]1(C(=O)N(C)c3cc(Br)ccc31)C1=C(CCCC1=O)O2` was 1.12; that for `C=C(C)C1[C@H](c2cc(OC)c(O)c3oc4cc(OC)cc(O)c4c(=O)c23)C=C(C)C[C@H]1c1cc(OC)c(O)c2oc3cc(OC)cc(O)c3c(=O)c12` (stereo partly specified) was 1.11.
As for `CC(C)CCCN(C(=O)OC(C)(C)C)S(=O)(=O)NCC(F)(F)F`, the figure is 1.04; as for `COc1ccc(OC)c(N2C(=O)c3[nH]nc(CC(C)C)c3C2c2ccc(F)cc2)c1` (stereo unspecified), 1.15.
`COc1cc([C@H]2c3c(OC)c(O)c4cc(-c5ccccc5)oc(=O)c4c3[C@@H]3C=C(C)CC(C)(C)[C@H]23)c2c(=O)oc(-c3ccccc3)cc2c1O`: the growth came out at 1.09.
Turning to `O[C@H](CC#CCOc1ccccc1)COCc1ccccc1`, the growth was found to be 0.906.
Regarding `COc1ccc(OC)c2c1CCN(CCc1ccc(NC(=O)c3cccc4c(=O)c5cccc(OC)c5[nH]c34)cc1)C2`, the growth turned out to be 1.01.
As for `COC(=O)C/C=C/[C@@H](C)[C@H](NC(=O)C1CCCN1)c1ccccc1` (stereo partly specified), the figure is 1.11.
Turning to `COCOc1cc(OC)ccc1C(=O)/C=C/c1ccc2c(c1)OCO2`, the growth is 0.864.
Regarding `COc1ccc(N2C(=O)c3nn(C)c(C(C)C)c3C2c2ccccc2)cc1` (stereo unspecified), the growth is 1.03.
With `COc1ccc(N2C(=O)C3=C(C(c4ccccc4)=NCCN3)C2c2ccc3c(c2)OCO3)cc1` (stereo unspecified), the growth was found to be 0.959.
For `COC(=O)c1cc(O)c(Cl)c(OC)c1`, the growth is 1.12.
Regarding `COc1ccc(CO/N=C2\CCCC/C=C/CCOC(=O)c3c(O)cc(O)cc3C2)cc1`, the growth came out at 1.06.
Consider `C=CC[C@]1(C)[C@H]2[C@H]3c4ccccc4[C@]([C@@H](COC)OC)(c4ccccc43)[C@H]2C(=O)N1C`, for which the growth was found to be 1.01.
The value for `COc1ccc(CC(=O)NC(C)=O)cc1OC` was 1.09.
On to `COc1ccc2ccccc2c1-c1c(OC)ccc2ccccc12`, for which the growth was 1.
As for `C[C@@H](O)Cn1nc2cc1COC[C@H](c1ccccc1)NC(=O)CC1(CCCCC1)CNC(=O)c1cccc-2c1`, the growth is 1.96.
Take `CS(=O)(=O)Oc1c(CC23CCCCC2=Nc2ccc(Br)cc23)occc1=O` (stereo unspecified): the growth stood at 0.948.
Turning to `Nc1cc(-c2ccc(F)cc2)ccc1O`, the growth is 1.09.
Take `COc1ccc2c(c1)[C@@H](NC(=O)C(F)(F)F)[C@@H]1CCCC[C@]21c1ccccc1`: the growth was determined as 1.02.
Consider `Cc1nn(C)c(C)c1Nc1cc(O)cc(O)c1C(=O)N1CC[C@@H](F)C1`, for which the growth was 1.28.
As for `CCOC(=O)C1=C(C)NC(=O)NC1c1cccc(C)c1` (stereo unspecified), the growth was 0.93.
`CS(=O)(=O)Oc1c(CC23CCCCC2=Nc2cc(Cl)cc(Cl)c23)occc1=O` (stereo unspecified): the growth came out at 1.02.
In the case of `O=C1C2=C(C(c3ccccc3)=NCCN2)C(c2ccc(F)cc2)N1Cc1ccccc1` (stereo unspecified), the growth came out at 0.943.
As for `Cc1ccccc1S(=O)(=O)N1CCCc2nc(-c3ccc(Br)cc3)ccc21`, the figure is 0.932; as for `COc1cc(O)c(C(=O)[C@@H]2CC=C(C)C[C@H]2c2ccsc2)c(O)c1`, 1.06.
With `COC(=O)[C@]1([C@@H]2OC(=O)C=C2C)CC(=O)c2c(O)cccc2O1`, the growth was 1.02.
As for `CC1=C[C@]23O[C@H]2C(=O)[C@H]2O[C@H]2[C@]3(O)[C@@H]2CCC3(OCCO3)[C@@]2(O[Si](C)(C)C)C1`, the figure is 0.89.
`CC(=O)C1=C2C=CCCN2C(=O)NC1c1ccccc1C` (stereo unspecified): the growth was found to be 1.15.
Take `CCOC(=O)C1(C(=O)OCC)Cc2cnc(-c3ccccc3)cc2C1`: the growth was 1.09.
As for `CC1=NCCNC2=C1C(c1cccc(C(F)(F)F)c1)NC2=O` (stereo unspecified), the growth was determined as 1.02.
The value for `C=CCOc1c(C)c(C)c(C(=O)OC)c(O)c1C` was 1.23; that for `COC(=O)c1c(O)c(C)c(O)c(C)c1O` was 1.01; that for `CC1(C)Cc2cc3cccc4n3c2N(C1)C(=O)[C@@H]1C[C@@H](O)CN1C4=O` was 0.903.
`COc1cccc(N2C(=O)c3[nH]nc(CC(C)C)c3C2c2ccccc2Cl)c1` (stereo unspecified): the growth turned out to be 1.05.
The value for `COc1ccc(N2C(=O)c3[nH]nc(CC(C)C)c3C2c2ccc(Br)cc2)cc1` (stereo unspecified) was 0.969; that for `C=CCN1C(=O)C2=C(C(C(C)C)=NCCN2)C1c1ccc(C)cc1` (stereo unspecified) was 1.05.
With `COC(=O)c1c(-c2ccccc2)c2c(c3c4ccccc4n(S(=O)(=O)c4ccc(C)cc4)c13)C(=O)N(C)C2`, the growth turned out to be 1.04.
In the case of `C=CC[C@@H](O)COc1cc2c(cc1C1(c3cc4c(cc3OC[C@H](O)CC=C)OCO4)C(=O)Nc3cc(Br)ccc31)OCO2`, the growth turned out to be 0.985.
Consider `CC(=O)OC[C@@H]1O[C@H](C#Cc2ccc(C(C)(C)C)cc2)C=C[C@H]1OC(C)=O`, for which the growth was 0.962.
Take `CC1=C(C(N)=O)C(c2ccc(Cl)cc2)NC(=O)N1` (stereo unspecified): the growth stood at 1.1.
As for `COc1ccc([C@@]23Oc4cc(OC)cc(OC)c4[C@]2(O)[C@H](O)[C@H](C(=O)c2ccco2)[C@H]3c2ccccc2)cc1`, the figure is 0.786; as for `CC(C)OC(=O)[C@H](C)NC(=O)N1CCc2nc(-c3ccccc3)c3c(c2C1)CO[C@@H](C)C3`, 1.1.
`CCOc1cc(N(C)C)ccc1C1CC(=O)Nc2cc3c(cc21)OCCO3` (stereo unspecified): the growth stood at 1.2.
With `CC(C)c1c2c(nn1C)C(=O)NC2c1cccc(C(F)(F)F)c1` (stereo unspecified), the growth was 0.984.
For `Cc1cc(C)cc(/C=C/[C@H]2c3c(C)cc(C)cc3CO[C@@H]2[C@H](O)CO)c1`, the growth amounted to 0.919.
Take `CO[C@@H]1[C@H](O)CC[C@]2(O)CN(c3ccc4c(c3)oc3ccccc34)[C@](C)([C@H](O)CC=C(C)C)[C@@H]12`: the growth stood at 0.98.
